Reference: publication PMC6919601, “Identification of Plasmodium dipeptidyl aminopeptidase allosteric inhibitors by high throughput screening” (PLoS ONE, 2019)
About 230 (0.21%) of roughly 110,000 compounds showed an effect of 50% or more. Some of the results follow.

Biological target: DPAP1 (Plasmodium falciparum, UniProt Q8IIJ9)
Assay: primary screen, percent inhibition; read by cleavage of a fluorogenic dipeptide substrate; higher = more effect of the substance
Parameters: species or system P. falciparum D10 trophozoite lysates; single well
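Note: 30 min substrate incubation versus DMSO and 10 µM JCP410 controls.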

Sequence of DPAP1 (Q8IIJ9 whole entry, looked up): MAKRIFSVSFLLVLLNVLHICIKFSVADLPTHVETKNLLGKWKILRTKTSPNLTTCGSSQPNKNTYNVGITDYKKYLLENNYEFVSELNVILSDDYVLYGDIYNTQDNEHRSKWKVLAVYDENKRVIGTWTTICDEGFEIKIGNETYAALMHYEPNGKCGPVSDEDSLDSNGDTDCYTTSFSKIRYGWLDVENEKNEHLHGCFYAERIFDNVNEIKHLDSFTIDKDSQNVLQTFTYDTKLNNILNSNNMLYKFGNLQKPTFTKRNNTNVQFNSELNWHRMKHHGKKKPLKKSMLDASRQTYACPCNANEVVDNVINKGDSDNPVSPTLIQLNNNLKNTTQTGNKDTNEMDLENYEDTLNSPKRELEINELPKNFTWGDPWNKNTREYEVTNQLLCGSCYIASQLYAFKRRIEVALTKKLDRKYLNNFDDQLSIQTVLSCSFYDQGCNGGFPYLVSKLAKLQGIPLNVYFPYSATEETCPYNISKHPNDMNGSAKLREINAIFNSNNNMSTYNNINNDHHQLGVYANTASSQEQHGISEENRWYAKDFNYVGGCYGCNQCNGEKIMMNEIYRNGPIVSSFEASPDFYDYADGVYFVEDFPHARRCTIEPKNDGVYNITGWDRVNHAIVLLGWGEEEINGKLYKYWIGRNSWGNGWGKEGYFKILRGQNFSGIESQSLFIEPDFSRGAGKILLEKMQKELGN

In order of rising “% Inhibition @ 10 uM” value:
1. CN(C)CC1CSCCC1(O)c1ccc(C(F)(F)F)cc1 (stereo not drawn)  -11.2%
2. Cc1ccc2nc(NC(=O)Cn3cnc4c3c(=O)n(C)c(=O)n4C)sc2c1  -7.23%
3. O=C(Cn1ncc2c(=O)oc3ccccc3c21)NCc1ccc2c(c1)OCO2  -6.62%
4. CC(C)c1ccc(S(=O)(=O)N2CCCCC2)cc1  -6.32%
5. Cc1cc(C(C)(C)C)cc(C)c1NS(C)(=O)=O  -6.07%
6. CSc1nnc(NC(=O)c2cc(=O)c3cc(Cl)ccc3o2)s1  -5.08%
7. CCC(C(=O)NCCN1CCCCCC1)n1nc(C)c2sc3ccccc3c2c1=O (stereo not drawn)  -4.43%
8. Cc1c(Cc2ccccc2)sc(NC(=O)Cc2ccccc2)c1C(N)=O  -4.02%
9. COc1ccc(-c2noc(CN(C(=O)CC(c3ccccc3)c3ccccc3)C(C)C)n2)cc1  -3.68%
10. COC(=O)C1=C(C)N(CCc2ccccc2)C(=O)/C1=C\c1cc(C)n(-c2ccccc2F)c1C  -3.63%
11. COc1ccc(CC(=O)Nc2cc(C)ccc2C)cc1  -3.04%
12. CCc1c(C)sc(NC(=O)Cc2ccc(OC)cc2)c1C#N  -2.53%
13. Clc1ccccc1N1CCN(Cc2ccc3ccccc3c2)CC1  -2.03%
14. O=C(c1cccc(S(=O)(=O)N2CCOCC2)c1)c1cccc(S(=O)(=O)N2CCOCC2)c1  -1.74%
15. Cc1nc2cc(Cl)cc(Cl)c2c(=O)n1-c1ccccc1Cl  -1.5%
16. CC1CN(S(=O)(=O)c2ccc(F)cc2)C(C)CN1S(=O)(=O)c1ccc(F)cc1 (stereo not drawn)  -1.44%
17. CCOc1ccc(C(=O)Nc2nc(C)cc(C)n2)cc1  -1.37%
18. COc1cc(OC)cc(-c2nnc(SCC(=O)N3CCCC(C)C3)o2)c1 (stereo not drawn)  -0.999%
19. Cc1c(O)ccc(C(=O)COc2ccc(F)cc2)c1O  -0.615%
20. O=c1onc(-c2cccs2)n1Cc1ccccn1  -0.361%
21. CCN(CC)C(=O)C1CCCN(Cc2ccccc2F)C1 (stereo not drawn)  -0.0404%
22. COc1cccc(/C=N\c2cccnc2)c1O  0.26%
23. Cc1ccccc1C=C1C(=O)N(C)C(=O)N(C)C1=O  0.343%
24. CC(=O)Nc1ccc(S(=O)(=O)Nc2sc3c(c2C(N)=O)CCCC3)cc1  0.431%
25. CC1=C(C(=O)Nc2cccnc2)C(c2ccc(Cl)cc2)n2nc(CCCO)nc2N1 (stereo not drawn)  0.64%
26. O=C(Nc1ccc(-c2ccc([N+](=O)[O-])cc2)cc1)c1ccccc1F  0.98%
27. COc1ccccc1C(=O)Nc1ccc2nc(SCC(=O)NC3CC3)sc2c1  1.01%
28. CNC(=O)Cn1nc(C)c2c(C)n(-c3ccccc3)nc2c1=O  1.11%
29. Cc1c(C(=O)N(Cc2ccccc2)C(C)C)oc2ccc(S(=O)(=O)N3CCCC3)cc12  1.16%
30. CCN1CCC(Nc2ccc3c(c2)CCC3)CC1  1.43%
31. CN1CCC(N2CCCC(O)C2)CC1 (stereo not drawn)  1.9%
32. Cn1ncc2c(N3CCN(CCO)CC3)ncnc21  2.56%
33. FC(F)(F)c1cc(-c2ccccc2)nc(NCc2cccnc2)n1  2.59%
34. C=CCNC(=O)C1CCN(c2nc3ccc(CC)cc3s2)CC1  2.79%
35. CN(CC(=O)NC1CCCC1)S(=O)(=O)c1cc(Br)cnc1N  3.1%
36. CCC(C)NC(=O)CS(=O)Cc1nc(-c2ccccc2)oc1C (stereo not drawn)  3.19%
37. CC1CCCN(C2CCN(CCc3ccccc3)CC2)C1 (stereo not drawn)  3.19%
38. COc1cc2c(cc1OC)C(C(=O)NCCC1=CCCCC1)C(c1cccs1)N(C)C2=O (stereo not drawn)  3.33%
39. O=[N+]([O-])c1ccccc1CNC1CCCC1  3.42%
40. COc1ccc(C)cc1NC(=O)CN(Cc1ccc(Cl)cc1)S(=O)(=O)c1ccccc1  3.53%
41. COc1ccccc1Oc1nc2ccccn2c(=O)c1/C=C(\C#N)C(=O)NCCCOC(C)C  3.63%
42. O=C(O)CCC/N=C/C1=C(O)CCCC1=O  3.79%
43. COc1cc(CC2C(=O)N(C)C(=O)N(C)C2=O)cc(Br)c1O  3.8%
44. Cc1cc(C)c2nc(NCc3ccccc3O)sc2c1  3.93%
45. CCOC(=O)C1=C(C)N(C)C(SC)=NC1c1ccccc1 (stereo not drawn)  4.42%
46. O=C(C1CCCN(S(=O)(=O)N2CCOCC2)C1)N1CCN(c2ccccn2)CC1 (stereo not drawn)  5.43%
47. C=C(C)Cn1c(-c2ccccc2)nc2ccccc21  5.81%
48. Cc1cccc(NC(=N)Nc2nc(C)c(Cc3ccccc3)c(O)n2)c1  6.07%
49. CC(C)(C)NC(=O)Cn1cnc2c(cnn2-c2ccccc2)c1=O  7.16%
50. COc1nc2cc(C)ccc2cc1C=O  7.39%
51. C=CCNC(=O)c1cnn2c(C(F)(F)F)cc(-c3cccs3)nc12  8.46%
